# Test results taken from the supplement of paper PMC8728848.
# The other results are listed elsewhere or left out.
# Experiments:
# Experiment in all cases: glycan array binding signal (z-score within array); higher = stronger binding
# Conditions in all cases: glycan notation: IUPAC condensed, linker removed
# Fuc(a1-2)Gal = biological target: Fuc(a1-2)Gal
# How it was run: (§1)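 Glycan array data were curated from 3228 arrays in the Consortium for Functional Glycomics database and kept only where the protein sequence was available. Glycan names were converted to IUPAC-condensed notation, and columns mapping to the same glycan were averaged. The binding signal is a within-array Z-score, averaged across arrays of the same protein sequence at different concentrations or buffers and across linkers. Negative Z-scores can be read as non-binding.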
# Fuc(a1-2)Gal(b1-3)GalNAc = biological target: Fuc(a1-2)Gal(b1-3)GalNAc
# How it was run: as §1
# [1] = biological target: Fuc(a1-2)Gal(b1-3)GalNAc(a1-3)[Fuc(a1-2)]Gal(b1-4)Glc
# How it was run: as §1
# [2] = biological target: Fuc(a1-2)Gal(b1-3)GalNAc(a1-3)[Fuc(a1-2)]Gal(b1-4)GlcNAc
# How it was run: as §1
# [3] = biological target: Fuc(a1-2)Gal(b1-3)GalNAc(b1-3)Gal
# How it was run: as §1
# [4] = biological target: Fuc(a1-2)Gal(b1-3)GalNAc(b1-3)Gal(a1-4)Gal(b1-4)Glc
# How it was run: as §1
# [5] = biological target: Fuc(a1-2)Gal(b1-3)GalNAc(b1-4)[Neu5Ac(a2-3)]Gal(b1-4)Glc
# How it was run: as §1
# Fuc(a1-2)Gal(b1-3)GlcNAc = biological target: Fuc(a1-2)Gal(b1-3)GlcNAc
# How it was run: as §1
# [6] = biological target: Fuc(a1-2)Gal(b1-3)GlcNAc(b1-2)Man(a1-3)[Fuc(a1-2)Gal(b1-3)GlcNAc(b1-2)Man(a1-6)]Man(b1-4)GlcNAc(b1-4)GlcNAc
# How it was run: as §1
# [7] = biological target: Fuc(a1-2)Gal(b1-3)GlcNAc(b1-2)Man(a1-3)[Fuc(a1-2)Gal(b1-3)GlcNAc(b1-2)Man(a1-6)]Man(b1-4)GlcNAc(b1-4)[Fuc(a1-6)]GlcNAc
# How it was run: as §1
# [8] = biological target: Fuc(a1-2)Gal(b1-3)GlcNAc(b1-3)Gal(b1-4)Glc
# How it was run: as §1
# [9] = biological target: Fuc(a1-2)Gal(b1-3)GlcNAc(b1-3)GalNAc
# How it was run: as §1
# [10] = biological target: Fuc(a1-2)Gal(b1-3)GlcNAc(b1-3)[Fuc(a1-2)Gal(b1-3)GlcNAc(b1-6)]GalNAc
# How it was run: as §1
# [11] = biological target: Fuc(a1-2)Gal(b1-3)GlcNAc(b1-3)[Gal(b1-4)GlcNAc(b1-6)]Gal(b1-4)Glc
# How it was run: as §1
# [12] = biological target: Fuc(a1-2)Gal(b1-3)GlcNAc(b1-3)[Neu5Ac(a2-6)Gal(b1-4)GlcNAc(b1-6)]Gal(b1-4)Glc
# How it was run: as §1
# [13] = biological target: Fuc(a1-2)Gal(b1-3)GlcNAc6S
# How it was run: as §1
# [14] = biological target: Fuc(a1-2)Gal(b1-3)[Fuc(a1-4)]GlcNAc
# How it was run: as §1
# [15] = biological target: Fuc(a1-2)Gal(b1-3)[Fuc(a1-4)]GlcNAc(b1-2)Man(a1-3)[Fuc(a1-2)Gal(b1-3)[Fuc(a1-4)]GlcNAc(b1-2)Man(a1-3)]Man(b1-4)GlcNAc(b1-4)GlcNAc
# How it was run: as §1
# [16] = biological target: Fuc(a1-2)Gal(b1-3)[Fuc(a1-4)]GlcNAc(b1-2)Man(a1-3)[Fuc(a1-2)Gal(b1-3)[Fuc(a1-4)]GlcNAc(b1-2)Man(a1-6)]Man(b1-4)GlcNAc(b1-4)[Fuc(a1-6)]GlcNAc(b1-4)[Fuc(a1-6)]GlcNAc
# How it was run: as §1
# [17] = biological target: Fuc(a1-2)Gal(b1-3)[Fuc(a1-4)]GlcNAc(b1-3)[Fuc(a1-3)[Gal(b1-4)]GlcNAc(b1-6)]Gal(b1-4)Glc
# How it was run: as §1
# [18] = biological target: Fuc(a1-2)Gal(b1-3)[Fuc(a1-4)]GlcNAc(b1-3)[Gal(b1-4)GlcNAc(b1-6)]Gal(b1-4)Glc
# How it was run: as §1
# [19] = biological target: Fuc(a1-2)Gal(b1-4)Fuc(a1-3)]GlcNAc(b1-2)Man(a1-3)[Fuc(a1-2)Gal(b1-4)[Fuc(a1-3)]GlcNAc(b1-2)Man(a1-6)]Man(b1-4)GlcNAc(b1-4)GlcNAc
# How it was run: as §1
# Fuc(a1-2)Gal(b1-4)Glc = biological target: Fuc(a1-2)Gal(b1-4)Glc
# How it was run: as §1
# Fuc(a1-2)Gal(b1-4)Glc6S = biological target: Fuc(a1-2)Gal(b1-4)Glc6S
# How it was run: as §1
# Fuc(a1-2)Gal(b1-4)GlcNAc = biological target: Fuc(a1-2)Gal(b1-4)GlcNAc
# How it was run: as §1
# [20] = biological target: Fuc(a1-2)Gal(b1-4)GlcNAc(b1-2)Man
# How it was run: as §1
# [21] = biological target: Fuc(a1-2)Gal(b1-4)GlcNAc(b1-2)Man(a1-3)[Fuc(a1-2)Gal(b1-4)GlcNAc(b1-2)Man(a1-6)]Man(b1-4)GlcNAc(b1-4)GlcNAc
# How it was run: as §1
# [22] = biological target: Fuc(a1-2)Gal(b1-4)GlcNAc(b1-2)Man(a1-3)[Fuc(a1-2)Gal(b1-4)GlcNAc(b1-2)Man(a1-6)]Man(b1-4)GlcNAc(b1-4)[Fuc(a1-6)]GlcNAc
# How it was run: as §1
# [23] = biological target: Fuc(a1-2)Gal(b1-4)GlcNAc(b1-2)[Fuc(a1-2)Gal(b1-4)GlcNAc(b1-4)]Man(a1-3)[Fuc(a1-2)Gal(b1-4)GlcNAc(b1-2)Man(a1-6)]Man(b1-4)GlcNAc(b1-4)GlcNAc
# How it was run: as §1
# [24] = biological target: Fuc(a1-2)Gal(b1-4)GlcNAc(b1-3)Gal(b1-4)GlcNAc
# How it was run: as §1
# [25] = biological target: Fuc(a1-2)Gal(b1-4)GlcNAc(b1-3)Gal(b1-4)GlcNAc(b1-2)Man(a1-3)[Fuc(a1-2)Gal(b1-4)GlcNAc(b1-3)Gal(b1-4)GlcNAc(b1-2)Man(a1-6)]Man(b1-4)GlcNAc(b1-4)GlcNAc
# How it was run: as §1
# [26] = biological target: Fuc(a1-2)Gal(b1-4)GlcNAc(b1-3)Gal(b1-4)GlcNAc(b1-3)Gal(b1-4)GlcNAc
# How it was run: as §1
# [27] = biological target: Fuc(a1-2)Gal(b1-4)GlcNAc(b1-3)GalNAc
# How it was run: as §1
# [28] = biological target: Fuc(a1-2)Gal(b1-4)GlcNAc(b1-3)[Fuc(a1-2)Gal(b1-4)GlcNAc(b1-6)]GalNAc
# How it was run: as §1
# [29] = biological target: Fuc(a1-2)Gal(b1-4)GlcNAc(b1-3)[Fuc(a1-3)[Gal(b1-4)]GlcNAc(b1-6)]Gal(b1-4)Glc
# How it was run: as §1
# [30] = biological target: Fuc(a1-2)Gal(b1-4)GlcNAc(b1-6)GalNAc
# How it was run: as §1
# [31] = biological target: Fuc(a1-2)Gal(b1-4)GlcNAc6S
# How it was run: as §1
# [32] = biological target: Fuc(a1-2)Gal(b1-4)[Fuc(a1-3)]GlcNAc
# How it was run: as §1
# [33] = biological target: Fuc(a1-2)Gal(b1-4)[Fuc(a1-3)]GlcNAc(b1-2)Man(a1-3)[Fuc(a1-2)Gal(b1-4)[Fuc(a1-3)]GlcNAc(b1-2)Man(a1-6)]Man(b1-4)GlcNAc(b1-4)[Fuc(a1-6)]GlcNAc
# How it was run: as §1
# [34] = biological target: Fuc(a1-2)Gal(b1-4)[Fuc(a1-3)]GlcNAc(b1-2)[Fuc(a1-2)Gal(b1-4)[Fuc(a1-3)]GlcNAc(b1-4)]Man(a1-3)[Fuc(a1-2)Gal(b1-4)[Fuc(a1-3)]GlcNAc(b1-2)Man(a1-6)]Man(b1-4)GlcNAc(b1-4)GlcNAc
# How it was run: as §1
# [35] = biological target: Fuc(a1-2)Gal(b1-4)[Fuc(a1-3)]GlcNAc(b1-3)Gal(b1-4)[Fuc(a1-3)]GlcNAc
# How it was run: as §1
# [36] = biological target: Fuc(a1-2)Gal(b1-4)[Fuc(a1-3)]GlcNAc(b1-3)Gal(b1-4)[Fuc(a1-3)]GlcNAc(b1-3)Gal(b1-4)[Fuc(a1-3)]GlcNAc
# How it was run: as §1
# [37] = biological target: Fuc(a1-2)Gal(b1-4)[Fuc(a1-3)]GlcNAc(b1-3)GalNAc
# How it was run: as §1
# [38] = biological target: Fuc(a1-2)Gal(b1-4)[Fuc(a1-3)]GlcNAc(b1-3)[Neu5Ac(a2-6)Gal(b1-4)GlcNAc(b1-6)]Gal(b1-4)Glc
# How it was run: as §1
# [39] = biological target: Fuc(a1-2)Gal3S(b1-4)GlcNAc
# How it was run: as §1
binder,measurement,setting,value
SJA (Sophora japonica) (protein) FLGLFNSGGYSSSYQIVAVEFDTYINEWDPKTRHIGIDINSINSTKTVTWGWENGEVAIVLISYKAATETLTVSLTYPSSQTSYILSAAVDLKSILPEWVRIGF,glycan array binding signal (z-score),Fuc(a1-2)Gal,-0.017
same,glycan array binding signal (z-score),Fuc(a1-2)Gal(b1-3)GalNAc,-0.203
same,glycan array binding signal (z-score),[1],-0.36
same,glycan array binding signal (z-score),[2],-0.224
same,glycan array binding signal (z-score),[3],-0.081
same,glycan array binding signal (z-score),[4],-0.14
same,glycan array binding signal (z-score),[5],-0.092
same,glycan array binding signal (z-score),Fuc(a1-2)Gal(b1-3)GlcNAc,-0.218
same,glycan array binding signal (z-score),[6],0.322
same,glycan array binding signal (z-score),[7],-0.346
same,glycan array binding signal (z-score),[8],-0.125
same,glycan array binding signal (z-score),[9],-0.172
same,glycan array binding signal (z-score),[10],-0.184
same,glycan array binding signal (z-score),[11],-0.254
same,glycan array binding signal (z-score),[12],-0.155
same,glycan array binding signal (z-score),[13],-0.278
same,glycan array binding signal (z-score),[14],-0.008
same,glycan array binding signal (z-score),[15],0.093
same,glycan array binding signal (z-score),[16],-0.175
same,glycan array binding signal (z-score),[17],-0.31
same,glycan array binding signal (z-score),[18],-0.052
same,glycan array binding signal (z-score),[19],0.588
same,glycan array binding signal (z-score),Fuc(a1-2)Gal(b1-4)Glc,-0.141
same,glycan array binding signal (z-score),Fuc(a1-2)Gal(b1-4)Glc6S,-0.144
same,glycan array binding signal (z-score),Fuc(a1-2)Gal(b1-4)GlcNAc,0.088
same,glycan array binding signal (z-score),[20],-0.099
same,glycan array binding signal (z-score),[21],0.01
same,glycan array binding signal (z-score),[22],-0.133
same,glycan array binding signal (z-score),[23],-0.012
same,glycan array binding signal (z-score),[24],-0.163
same,glycan array binding signal (z-score),[25],0.111
same,glycan array binding signal (z-score),[26],-0.154
same,glycan array binding signal (z-score),[27],0.094
same,glycan array binding signal (z-score),[28],0.029
same,glycan array binding signal (z-score),[29],-0.156
same,glycan array binding signal (z-score),[30],-0.125
same,glycan array binding signal (z-score),[31],-0.09
same,glycan array binding signal (z-score),[32],-0.182
same,glycan array binding signal (z-score),[33],-0.206
same,glycan array binding signal (z-score),[34],-0.047
same,glycan array binding signal (z-score),[35],-0.149
same,glycan array binding signal (z-score),[36],-0.197
same,glycan array binding signal (z-score),[37],0.142
same,glycan array binding signal (z-score),[38],-0.348
same,glycan array binding signal (z-score),[39],-0.087
